Results published in PubChem BioAssay (NCI).
Values joined by “and” are separate entries in the source; they are usually repeats but may differ in a detail not shown here. Equal values may be shown once.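 Where inhibition never reached the appropriate level, the endpoint shown equals the highest concentration tested. Otherwise, values were interpolated linearly from a five-concentration, 48-hour dose response in 96-well plates. At the GI50, growth is halved. TGI: concentration producing complete growth inhibition.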

Test system: NCI-H322M lung
Test: DTP human tumour cell line panel, 48 h

SMILES | TGI | GI50
CN(C)c1ccc(N=C2N=C(Nc3ccccc3)C(=Nc3ccccc3)S2)cc1 | > 100 µM | 
Oc1ccc(Br)cc1C=Nc1c(NC2CCCCC2)oc2ccc(Br)cc12 | > 100 µM | 
CC(=O)NC(CCCCNCc1ccccc1)C(=O)NCc1ccccc1 (stereo not drawn) | > 100 µM | 
S=C(NCCc1ccccn1)N/N=C(\c1ccccc1)c1ccccn1 | > 100 µM | 
CC(=O)OCC12CC(CC1OC(C)=O)c1ccccc12 (stereo not drawn) | > 100 µM | 
c1cc[c]([Ge]([O]c2cccc3cccnc23)([c]2ccccc2)[c]2ccccc2)cc1 | 19.7 µM | 6.73 µM
N#Cc1c(-c2ccc([N+](=O)[O-])cc2)c2c([nH]c1=O)-c1ccccc1CCC2 | > 100 µM | 
CC(C)(C)c1cc(C[P+](c2ccccc2)(c2ccccc2)c2ccccc2)cc(C(C)(C)C)c1O | 8.96 µM | 1.92 µM
COc1cccc(/C=C2\CCC(CN(C)C)C2=O)c1 (stereo not drawn) | 32.1 µM | 
N#CC1(CCCI)CCCC1 | 26.4 µM | 
N=S(c1ccccc1[N+](=O)[O-])c1ccccc1[N+](=O)[O-] | 13.2 µM and 8.29 µM | 6.73 µM and 2.9 µM
C[N+]1(C(CO)Cc2c[nH]c3ccccc23)Cc2ccccc2C1 (stereo not drawn) | > 100 µM | 
COc1cccc2c1C(=O)c1c(O)c3c(c(O)c1C2=O)C[C@](O)(C(=O)CO)C[C@H]3O[C@@H]1C[C@@H](NC(=O)CCCN(C)C2(c3ccc(F)cc3)CC3CCC2C3)[C@H](O)[C@@H](C)O1 (stereo partly drawn) | 14.2 µM | 6.69 µM
Nc1nc(Sc2ccc([N+](=O)[O-])c3nonc23)c2ncn(C3OC(CO)C(O)C3O)c2n1 (stereo not drawn) | > 100 µM | > 56.9 µM
O=CCCn1[nH]c(=O)ccc1=O | > 100 µM | 
C=CC12CCCCC1CC(C(=O)OC)=C(O)C2 (stereo not drawn) | > 100 µM | 
CC[C@]12CN3CCc4c([nH]c5ccccc45)[C@@](C(=O)OC)(c4cc5c(cc4OC)N(C)[C@H]4[C@@](O)(C(=O)OC)[C@H](OC(C)=O)[C@]6(CC)C=CCN7CC[C@]54[C@@H]76)CC(C3)[C@H]1O2 (stereo partly drawn) | > 100 µM | 0.176 µM
Cn1cc(NC(=O)Nc2cc(C(=O)Nc3cc(C(=O)Nc4ccc5cc(S(=O)(=O)O)cc(S(=O)(=O)O)c5c4)n(C)c3)n(C)c2)cc1C(=O)Nc1cc(C(=O)Nc2ccc3cc(S(=O)(=O)O)cc(S(=O)(=O)O)c3c2)n(C)c1 | > 100 µM | 
Cc1csc2nc(-c3cccc([N+](=O)[O-])c3)c(/C=N/N=C(N)N)n12 | 3.08 µM | 
O=C(Nc1ccc(I)cc1F)c1cc(Br)ccc1O | > 100 µM | 0.399 µM
FC(F)(F)c1ccc2c(-c3cc[nH]c3)ccnc2c1 | 61.7 µM | 
